The Ki is a measure of affinity in units of concentration, obtained from inhibition or displacement.

This assay has as its target Recombinant heterodimeric HCV NS3/NS4A protease (strain 1a) (Hepatitis C virus genotype 1a, UniProt P27958). The experiment in a line: Spectrophotometric assay for HCV protease inhibitory activity. In kind it is biochemical.
Setting [1] is: HCV serine protease inhibitory activity ranges, read-out: Ki* Range.
Setting [2] is: HCV NS3/NS4A protease, chromogenic ester substrate, 30° C., pH 6.5, read-out: Ki*.

Structures are written as SMILES. Where two headings read alike, the source gives them in different places.

Regarding `CC(C)N(C(C)C)S(=O)(=O)CC1(NC(=O)N[C@H](C(=O)N2C[C@H]3[C@@H]([C@H]2C(=O)N[C@@H](CCC2CC2)C(=O)C(=O)NC2CC2)C3(C)C)C(C)(C)C)CCCCC1` [compound 1344], the inhibition constant Ki under setting [1] is below 75 nM.
`CCC[C@H](NC(=O)[C@@H]1[C@@H]2[C@H](CN1C(=O)[C@@H](NC(=O)NC1(CS(=O)(=O)N(C(C)C)C3CC3)CCCCC1)C1(C)CCCCC1)C2(C)C)C(=O)C(=O)NC1CC1` [compound 1362]: the Ki under setting [1] is below 75 nM.
`CCCNC(=O)C(=O)[C@H](CC1CC1)NC(=O)[C@@H]1[C@@H]2[C@H](CN1C(=O)[C@@H](NC(=O)NC1(CS(=O)(=O)N(C)OC)CCCCC1)C(C)(C)C)C2(C)C` [compound 1229]: the inhibition constant Ki under setting [1] was below 75 nM.
For the compound `CCC[C@H](NC(=O)[C@@H]1[C@@H]2[C@H](CN1C(=O)[C@@H](NC(=O)NC1(CS(=O)(=O)N(C)C3CCC3)CCCCC1)C(C)(C)C)C2(C)C)C(=O)C(=O)NC1CC1` [compound 1380], the Ki under setting [1] was below 75 nM.
`CCN(C(C)C)S(=O)(=O)CC1(NC(=O)N[C@H](C(=O)N2C[C@H]3[C@@H]([C@H]2C(=O)N[C@@H](CCC2CC2)C(=O)C(=O)NC2CC2)C3(C)C)C(C)(C)C)CCCCC1` [compound 1301]: the inhibition constant (Ki) under setting [1] is below 75 nM.
As to `CC(C)(C)[C@H](NC(=O)NC1(CS(=O)(=O)N2CCOCC2)CCCCC1)C(=O)N1C[C@H]2[C@@H]([C@H]1C(=O)N[C@@H](CCC1CC1)C(=O)C(=O)NC1CC1)C2(C)C` [compound 1384], under setting [1], the Ki is below 75 nM.
As to `CN(CC1CC1)S(=O)(=O)CC1(NC(=O)N[C@H](C(=O)N2C[C@H]3[C@@H]([C@H]2C(=O)N[C@@H](CCC2CC2)C(=O)C(=O)NC2CC2)C3(C)C)C(C)(C)C)CCCCC1` [compound 1271], under setting [1], the inhibition constant Ki was below 75 nM.
On the same count and under the same terms, the same measure for `CCC[C@H](NC(=O)[C@@H]1[C@@H]2[C@H](CN1C(=O)[C@@H](NC(=O)NC1(CS(=O)(=O)N(CC)C3CC3)CCCCC1)C1(C)CCCCC1)C2(C)C)C(=O)C(=O)NC1CC1` [compound 1361]: below 75 nM.
Turning to `CCCC[C@H](NC(=O)[C@@H]1[C@@H]2[C@H](CN1C(=O)[C@@H](NC(=O)NC1(CS(=O)(=O)N(C)C(C)(C)C)CCCCC1)C(C)(C)C)C2(C)C)C(=O)C(=O)NC1CC1` [compound 1272], under setting [1], the inhibition constant Ki is below 75 nM.
As for `CCC[C@H](NC(=O)[C@@H]1[C@@H]2[C@H](CN1C(=O)[C@@H](NC(=O)NC1(CS(=O)(=O)N(CC)C3CC3)CCCCC1)C(C)(C)C)C2(C)C)C(=O)C(=O)NC1CC1` [compound 1352], the Ki under setting [1] was below 75 nM.
For `CC(C)N(C)S(=O)(=O)CC1(NC(=O)N[C@H](C(=O)N2C[C@H]3[C@@H]([C@H]2C(=O)N[C@@H](CC2CC2)C(=O)C(=O)NC2CC2)C3(C)C)C2(C)CCCCC2)CCCCC1` [compound 1338], under setting [1], the Ki is below 75 nM.
Consider `CC(C)N(C1CC1)S(=O)(=O)CC1(NC(=O)N[C@H](C(=O)N2C[C@H]3[C@@H]([C@H]2C(=O)N[C@@H](CC2CC2)C(=O)C(=O)NC2CC2)C3(C)C)C(C)(C)C)CCCCC1` [compound 1332], for which the inhibitory constant (Ki) under setting [1] is below 75 nM.
For the compound `CCC[C@H](NC(=O)[C@@H]1[C@@H]2[C@H](CN1C(=O)[C@@H](NC(=O)NC1(CS(=O)(=O)N(C)C)CCCCC1)C(C)(C)C)C2(C)C)C(=O)C(=O)NC1CC1` [compound 1252], the Ki runs as follows: under setting [2], 5 nM; under setting [1], below 75 nM.
In the case of `CCCC[C@H](NC(=O)[C@@H]1[C@@H]2[C@H](CN1C(=O)[C@@H](NC(=O)NC1(CS(=O)(=O)N(CC)C3CC3)CCCCC1)C1(C)CCCCC1)C2(C)C)C(=O)C(=O)NC1CC1` [compound 1359], the Ki under setting [1] is below 75 nM.
As to `CCC[C@H](NC(=O)[C@@H]1[C@@H]2[C@H](CN1C(=O)[C@@H](NC(=O)NC1(CS(=O)(=O)N(C)C3CC3)CCCCC1)C(C)(C)C)C2(C)C)C(=O)C(=O)NC1CC1` [compound 1263], the Ki under setting [2] was found to be 8 nM and the inhibition constant Ki under setting [1] is below 75 nM.
Consider `CCN(C1CC1)S(=O)(=O)CC1(NC(=O)N[C@H](C(=O)N2C[C@H]3[C@@H]([C@H]2C(=O)N[C@@H](CCC2CC2)C(=O)C(=O)NC2CC2)C3(C)C)C(C)(C)C)CCCCC1` [compound 1351], for which the inhibition constant Ki under setting [1] was below 75 nM.
Regarding `CCCC[C@H](NC(=O)[C@@H]1[C@@H]2[C@H](CN1C(=O)[C@@H](NC(=O)NC1(CS(=O)(=O)N(C)[C@@H](C)C3CC3)CCCCC1)C(C)(C)C)C2(C)C)C(=O)C(=O)NC1CC1` [compound 1286], the inhibition constant (Ki) under setting [1] is below 75 nM.
Regarding `CN(C1CCC1)S(=O)(=O)CC1(NC(=O)N[C@H](C(=O)N2C[C@H]3[C@@H]([C@H]2C(=O)N[C@@H](CC2CC2)C(=O)C(=O)NC2CC2)C3(C)C)C2(C)CCCCC2)CCCCC1` [compound 1389], under setting [1], the inhibition constant (Ki) was below 75 nM.
On the same count and under the same terms, the same measure for `CCN(C1CC1)S(=O)(=O)CC1(NC(=O)N[C@H](C(=O)N2C[C@H]3[C@@H]([C@H]2C(=O)N[C@@H](CC2CC2)C(=O)C(=O)NC2CC2)C3(C)C)C2(C)CCCCC2)CCCCC1` [compound 1374]: below 75 nM; for `CCCC[C@H](NC(=O)[C@@H]1[C@@H]2[C@H](CN1C(=O)[C@@H](NC(=O)NC1(CS(=O)(=O)N(C)c3ccccn3)CCCCC1)C(C)(C)C)C2(C)C)C(=O)C(=O)NC1CC1` [compound 1394]: below 75 nM; for `CN(C(C)(C)CF)S(=O)(=O)CC1(NC(=O)N[C@H](C(=O)N2C[C@H]3[C@@H]([C@H]2C(=O)N[C@@H](CC2CC2)C(=O)C(=O)NC2CC2)C3(C)C)C2(C)CCCCC2)CCCCC1` [compound 1369]: below 75 nM.
For `C[C@H](C1CC1)N(C)S(=O)(=O)CC1(NC(=O)N[C@H](C(=O)N2C[C@H]3[C@@H]([C@H]2C(=O)N[C@@H](CCC2CC2)C(=O)C(=O)NC2CC2)C3(C)C)C(C)(C)C)CCCCC1` [compound 1295], under setting [1], the Ki is below 75 nM.
Still for that read-out and setting: the same measure for `CCC[C@H](NC(=O)[C@@H]1[C@@H]2[C@H](CN1C(=O)[C@@H](NC(=O)NC1(CS(=O)(=O)N(C)OC)CCCCC1)C(C)(C)C)C2(C)C)C(=O)C(=O)NC1CC1` [compound 1227]: below 75 nM; for `CCCC[C@H](NC(=O)[C@@H]1[C@@H]2[C@H](CN1C(=O)[C@@H](NC(=O)NC1([C@H](C)S(=O)(=O)N(C)C3CC3)CCCCC1)C(C)(C)C)C2(C)C)C(=O)C(=O)NC1CC1` [compound 1419]: below 75 nM; for `CCN(C(C)(C)C)S(=O)(=O)CC1(NC(=O)N[C@H](C(=O)N2C[C@H]3[C@@H]([C@H]2C(=O)N[C@@H](CC2CC2)C(=O)C(=O)NC2CC2)C3(C)C)C2(C)CCCCC2)CCCCC1` [compound 1337]: below 75 nM.
Still for that read-out and setting: for `CCCC[C@H](NC(=O)[C@@H]1[C@@H]2[C@H](CN1C(=O)[C@@H](NC(=O)NC1(CS(=O)(=O)N(C)CC(F)(F)F)CCCCC1)C(C)(C)C)C2(C)C)C(=O)C(=O)NC1CC1` [compound 1311] the value was below 75 nM; for `CCC[C@H](NC(=O)[C@@H]1[C@@H]2[C@H](CN1C(=O)[C@@H](NC(=O)NC1([C@@H](C)S(=O)(=O)N(C)C)CCCCC1)C(C)(C)C)C2(C)C)C(=O)C(=O)NC1CC1` [compound 1399], below 75 nM.
Consider `CCC[C@H](NC(=O)[C@@H]1[C@@H]2[C@H](CN1C(=O)[C@@H](NC(=O)NC1(CS(=O)(=O)N3CCOCC3)CCCCC1)C1(C)CCCCC1)C2(C)C)C(=O)C(=O)NC1CC1` [compound 1372], for which the inhibition constant Ki under setting [1] is below 75 nM.
For the compound `C[C@@H](C1CC1)N(C)S(=O)(=O)CC1(NC(=O)N[C@H](C(=O)N2C[C@H]3[C@@H]([C@H]2C(=O)N[C@@H](CCC2CC2)C(=O)C(=O)NC2CC2)C3(C)C)C(C)(C)C)CCCCC1` [compound 1287], the Ki under setting [1] was below 75 nM.

These data come from patent US7816326B2, “Sulfur compounds as inhibitors of hepatitis C virus NS3 serine protease” (Schering Corporation, priority 2004, dated 2010).
